# Assay results reported in PubChem BioAssay AID1460 (National Center for Advancing Translational Sciences (NCATS), 2008).
# Several values for one entry are separate records, joined by “and”; a condition that tells them apart may be missing. Equal entries are not always repeated. Out of some 270,000 compounds screened, about 5,800 (2.1%) were called active. The inconclusive results got no clear call from the source; some entries with a clear call stand among them for comparison. Calls follow the shape of the dose curve; as a rule, active = well fitted inhibition curve with a large enough effect; inconclusive = small, poorly fitted or top-dose-only effect; inactive = flat fitted curve, though single readings scatter. Potencies beside an inconclusive call are fits to weak or partial responses and may not hold up.
# Target: Microtubule-associated protein tau (Homo sapiens) (UniProt P10636)
# Sequence of UniProt P10636 (P10636 whole entry, looked up): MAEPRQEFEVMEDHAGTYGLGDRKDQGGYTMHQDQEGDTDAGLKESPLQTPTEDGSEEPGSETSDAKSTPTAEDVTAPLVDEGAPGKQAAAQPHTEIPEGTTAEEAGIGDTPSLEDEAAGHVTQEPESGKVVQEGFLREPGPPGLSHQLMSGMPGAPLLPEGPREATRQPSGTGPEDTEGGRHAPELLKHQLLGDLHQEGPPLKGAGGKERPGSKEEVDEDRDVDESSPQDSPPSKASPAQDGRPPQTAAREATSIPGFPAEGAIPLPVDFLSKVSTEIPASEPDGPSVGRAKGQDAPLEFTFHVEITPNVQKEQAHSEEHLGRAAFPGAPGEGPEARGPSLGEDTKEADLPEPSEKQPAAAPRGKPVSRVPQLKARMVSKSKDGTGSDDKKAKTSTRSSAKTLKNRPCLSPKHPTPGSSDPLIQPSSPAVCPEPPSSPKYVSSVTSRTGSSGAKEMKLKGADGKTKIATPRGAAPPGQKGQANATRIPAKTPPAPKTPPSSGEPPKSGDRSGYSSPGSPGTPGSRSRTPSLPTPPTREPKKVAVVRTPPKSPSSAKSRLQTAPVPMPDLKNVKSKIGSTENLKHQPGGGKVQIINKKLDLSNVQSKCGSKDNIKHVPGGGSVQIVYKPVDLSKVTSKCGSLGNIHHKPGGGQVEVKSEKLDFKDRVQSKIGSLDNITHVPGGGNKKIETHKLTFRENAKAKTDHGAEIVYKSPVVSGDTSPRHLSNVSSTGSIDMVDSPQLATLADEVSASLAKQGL
# Experiment: qHTS for Inhibitors of Tau Fibril Formation, Thioflavin T Binding; also: nearly all actives have a fitted effect of over 55% in size
# Settings: recombinant tau K18 P301L (four-repeat tau fragment), heparin-induced fibrillization, ThT fluorescence; series mostly up to 57.4 µM; activity, negative = inhibition: at the top concentration
# Outline: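 In this qHTS, human K18 P301L tau is incubated with compound and heparin for 6 hr at 37 C, and Thioflavin T fluorescence then reports fibril load.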
# % is scaled to controls: 0 for no effect and ±100 for the full control effect; potency is read from the fitted curve at half-maximal effect; tags tell the direction and shape of the fitted curve.
SMILES,Potency,"activity, negative = inhibition"
CC1(C)Oc2ccc3ccc(=O)oc3c2C(N2CCCCC2)C1O (stereo not drawn),"inconclusive: 39.8 µM [inhibitor, single point]",–
Cc1cc(C)c2oc(C(=O)Nc3ccc(S(=O)(=O)Nc4ncccn4)cc3)cc(=O)c2c1,–,inactive: -13.1%
CC(=O)Nc1ccc(N2CCC(C)CC2)c([N+](=O)[O-])c1,"inconclusive: 12.6 µM [inhibitor, partial curve]",–
N#CC1=C(N)C(C#N)(C#N)[C@H](c2c(F)cccc2F)[C@H]2CC3(CC=C12)OCCO3,"inconclusive: 31.6 µM [inhibitor, single point]",–
CN(C)c1nc(NCc2ccccc2)nc(N/N=C/c2cccc(Br)c2)n1,"inconclusive: 4.47 µM [inhibitor, partial curve, poor fit]",–
CCOC(=O)C(C)Oc1cccc2c(=O)n(CC(=O)N3CCc4ccccc43)ccc12 (stereo not drawn),"inconclusive: 31.6 µM [inhibitor, single point]",–
FC(F)(F)c1nc2ccccc2nc1N/N=C/c1ccc(Cl)cc1,"inconclusive: 5.01 µM [inhibitor, partial curve]",–
COc1ccc2oc(=O)c(C(=O)OCC(=O)c3ccc([N+](=O)[O-])cc3)cc2c1,"inconclusive: 15.8 µM [inhibitor, partial curve]",–
C=CCn1c(O)c(N=Nc2nc3ccccc3c(=O)n2-c2ccccc2)c2ccccc21,"inconclusive: 3.16 µM [inhibitor, full curve]",–
O=C(NCc1ccccc1)c1cnc2sc(N3CCCC3)nn2c1=O,–,inactive: 3.13%
C/C(=N\Nc1nc(C)c(C)s1)c1ccc([N+](=O)[O-])cc1,active: 14.1 µM,–
CCOc1cc(S(=O)(=O)NCCc2c(C)[nH]c3ccc(C)cc23)ccc1F,–,inactive: -7.92%
O=Nc1onc(-c2ccc([N+](=O)[O-])cc2)c1NO,"inconclusive: 25.1 µM [inhibitor, partial curve]",–
Cc1ccc(C(=O)COC(=O)CCC(=O)NC2CCCCC2)cc1[N+](=O)[O-],–,inactive: -6.63%
COc1ccc(CNC(=O)c2sc3nc4c(c(C(F)(F)F)c3c2N)CCC4)cc1,"inconclusive: 22.4 µM [inhibitor, single point]",–
CCOC(=O)c1sc(-c2ccccn2)nc1C,–,inactive: -6.58%
O=C(CCCCCNC(=O)c1ccccc1)N/N=C/c1ccc(O)cc1O,–,inactive: -6.31%
Cc1cccc(NC(=O)CCc2ccc(C)o2)c1,"inconclusive: 39.8 µM [inhibitor, single point]",–
O=C(Cn1cc(SCc2cccc(Cl)c2)c2ccccc21)N1CCCCC1,"inconclusive: 31.6 µM [inhibitor, single point]",–
CN(C)S(=O)(=O)c1cccc(NC(=O)COC(=O)c2cc(-c3cccc(Br)c3)nc3ccccc23)c1,–,inactive: 8.75%
CCOc1ccc(NC(=O)CC2C(=O)N(c3ccccc3)C(=O)N2CCc2sccc2C)cc1 (stereo not drawn),–,inactive: -8.64%
N#Cc1cc2c(nc1SCc1cccnc1)CCCC2,–,inactive: -10.9%
Cc1cc(-c2nn(C)c(=O)c3ccccc23)ccc1CNC(=O)NC1CCCCC1,"inconclusive: 12.6 µM [inhibitor, partial curve]",–

SMILES,Potency,"activity, negative = inhibition"
Cc1ccc(CN2CCSc3ccc(C(=O)NCc4ccccn4)cc32)cc1,"inconclusive: 28.2 µM [inhibitor, partial curve]",–
CC1CCc2c(sc(NS(=O)(=O)c3ccccc3)c2C(=O)OC(C)C)C1 (stereo not drawn),"inconclusive: 39.8 µM [inhibitor, single point]",–
Clc1ccc(-c2nnc(SCc3nc4ccccc4s3)o2)cc1,"inconclusive: 8.91 µM [inhibitor, full curve, poor fit]",–
CCCOc1cccc(C2/C(=C(/O)c3ccc(OC)cc3)C(=O)C(=O)N2CCN(C)C)c1 (stereo not drawn),–,inactive: -2.94%
COc1ccc(/C=C/c2nc(C#N)c(NCc3ccc(C)cc3)o2)cc1OC,"inconclusive: 8.91 µM [inhibitor, partial curve]",–
Cc1c2cnn(CC(=O)NC(C)C)c(=O)c2c(C)n1Cc1cccc(Cl)c1,–,inactive: 3.43%
O=C(O)c1ccc2c(c1)C(=O)N(c1ccc(/C=C/C(=O)c3ccccc3)cc1)C2=O,"inconclusive: 10 µM [inhibitor, partial curve]",–
Cc1nn(CC(=O)Nc2ccc3c(c2)nc2n3CCN(C3CCCCC3)C2)c(=O)c2ccccc12,"inconclusive: 14.1 µM [inhibitor, partial curve]",–
CCc1ccc(OC(=O)CSc2nnc(-c3ccc(OC)c(OC)c3)o2)cc1,–,inactive: 1.04%
CCN1CCN(CC(=O)c2cc(Cl)ccc2Cl)CC1,"inconclusive: 15.8 µM [inhibitor, partial curve]",–
CCc1cc2c(nc1CC)CCN(CC/C(C)=N/OC[C@@H](C)[C@H](OCc1ccccc1)C(C)C)C2,–,inactive: -8.34% [at 11.5 µM]
Cc1ccc(C)c(OCC(=O)Nc2nc3ccc([N+](=O)[O-])cc3s2)c1,"inconclusive: 0.794 µM [inhibitor, full curve]",–
N#CC1(Nc2cccc(Br)c2)C(=O)Nc2ccccc21 (stereo not drawn),"inconclusive: 28.2 µM [inhibitor, partial curve, poor fit]",–
C[C@@H](C(=O)NCC1CC1)[C@H]1C[C@]1(C)[C@H](NC(=O)OCc1ccccc1)c1ccccc1,"inconclusive: 44.7 µM [inhibitor, single point]",–
CC(C)[C@H](NC(=O)NC1CCCC1)C(=O)O,–,inactive: -1.92%
Cc1c2cc(O)c(=O)cc-2oc2cc(O)c(O)cc12,active: 3.16 µM,–
CN1CCN(S(=O)(=O)c2ccc(Sc3nnnn3-c3ccccc3)c([N+](=O)[O-])c2)CC1,"inconclusive: 7.94 µM [inhibitor, partial curve]",–
CN1C(=O)/C(=N\OC(=O)c2cccc3ccccc23)c2ccccc21,"inconclusive: 8.91 µM [inhibitor, partial curve]",–
NC(=O)N1c2ccccc2CC(=O)c2ccccc21,"inconclusive: 31.6 µM [inhibitor, single point] and inconclusive: 39.8 µM [inhibitor, single point] and inconclusive: 35.5 µM [inhibitor, partial curve]",–
Cc1cccc(OCC(=O)N2CCC(c3nc4ccccc4o3)CC2)c1C,–,inactive: -7.73%
Cc1ccccc1CSc1nc2c(sc3ccccc32)c(=O)n1CCCC(=O)NCCCOC(C)C,–,inactive: -3.66%
COc1cccc(OCC(=O)NC2CC(=O)N(c3cccc(OC)c3)C2)c1 (stereo not drawn),–,inactive: -14.1%
CCOc1ccc(-c2nnc(-c3ccccc3)o2)cc1,–,inactive: -19.8%

SMILES,Potency,"activity, negative = inhibition"
CCOC(=O)N1CCN(C(=O)c2oc(=O)c3ccccc3c2-c2ccc(C)cc2)CC1,–,inactive: 6.94%
CC[n+]1c(C)sc2c3ccsc3ccc21,"inconclusive: 17.8 µM [inhibitor, partial curve]",–
COc1cccc(/C=C2\C(=O)C(=O)c3ccccc32)c1,active: 12.6 µM,–
CCOC(=O)N1CCN(c2ncnc3c2cnn3-c2ccc(Cl)cc2)CC1,"inconclusive: 0.631 µM [inhibitor, full curve]",–
COc1cc(O)c(C(CCN2CCN(c3ccccc3)CC2)c2cc(OC)c(OC)c(OC)c2)c(OC)c1 (stereo not drawn),"inconclusive: 39.8 µM [inhibitor, single point]",–
COc1ccc2c(c1)-c1nc(NC(=O)c3cccc(Br)c3)sc1CC2,"inconclusive: 20 µM [inhibitor, partial curve, poor fit]",–
Cc1ccc(Nc2c3c(nc4nncn24)CCC3)c(C)c1,–,inactive: -2%
COc1ccc(-c2nc(-c3cccc([N+](=O)[O-])c3O)cc(=O)o2)cc1OC,"inconclusive: 3.55 µM [inhibitor, full curve]",–
Cc1ccc(-n2c(N)c(C(=O)Nc3c(C)n(C)n(-c4ccccc4)c3=O)c3nc4ccccc4nc32)cc1C,"inconclusive: 17.8 µM [inhibitor, partial curve, poor fit]",–
CCCN(C(=O)CCc1nc(-c2ccc(C)cc2)no1)c1ccc(OCC)cc1,"inconclusive: 31.6 µM [inhibitor, partial curve, poor fit]",–
COC(=O)Cn1c(=NC(=O)c2ccc([N+](=O)[O-])s2)sc2cc(Br)ccc21,"inconclusive: 8.91 µM [inhibitor, partial curve]",–
Nc1nc(-c2ccccc2)c(N=Nc2ccc(Cl)cc2)s1,"inconclusive: 1.58 µM [inhibitor, partial curve]",–
O=C(O)c1cc(C(=O)O)cc(-c2ccc(/C=c3/sc4nc5ccccc5n4c3=O)o2)c1,"inconclusive: 3.16 µM [inhibitor, partial curve]",–
Cc1ccccc1/C=C1\CCCc2ccccc2C1=O,"inconclusive: 25.1 µM [inhibitor, partial curve]",–
CCc1cccc(NC(=O)CSc2nnc(-c3cc4occc4n3C)n2-c2ccccc2C)c1,–,inactive: -3.19%
COc1ccc(N2Cc3ccccc3C2=NC(=O)c2ccc(C)cc2)cc1OC,"inconclusive: 0.631 µM [inhibitor, partial curve, poor fit]",–
c1ccc(-n2cnc3cc(NCc4ccncc4)ccc32)cc1,"inconclusive: 44.7 µM [inhibitor, single point]",–
CCOC(=O)c1ccc(NC(=S)NCCc2ccccc2F)cc1,–,inactive: -23.8%
Cc1cc(C=C2C(=O)c3ccccc3C2=O)c(C)n1-c1ccc(C(=O)O)cc1,active: 14.1 µM,–
Cn1ccc2c(OCC(=O)Nc3ccc(OC(F)(F)F)cc3)cccc2c1=O,"inconclusive: 20 µM [inhibitor, single point]",–
O=c1c(O)c(Br)ccc2c(Br)c(O)c(O)c(O)c12,active: 3.55 µM,–
CN(CC(=O)Nc1ccc(Cl)cc1)CC(=O)Nc1ccc(C(N)=O)cc1,–,inactive: -8.72%
